Results: publication PMC6756068, “The NF2 tumor suppressor merlin interacts with Ras and RasGAP, which may modulate Ras signaling” (Oncogene, 2019)
Changes are numbered by the printed parent chain. Results are given in words; binding and its absence hold for the method and conditions named. For some of these results: Binding seen in cells or lysates may run through a third protein. Some entries that bind do so weakly or less than the wild type. For some of these results: Tags and fused reporters may be left off the sequences shown.

Chains of the proteins cited; added tags and fusions are not shown. Lines headed by an entry give the natural chain unless they say otherwise; changes in a name come on top. Residues count along the entry.
UniProt P35240: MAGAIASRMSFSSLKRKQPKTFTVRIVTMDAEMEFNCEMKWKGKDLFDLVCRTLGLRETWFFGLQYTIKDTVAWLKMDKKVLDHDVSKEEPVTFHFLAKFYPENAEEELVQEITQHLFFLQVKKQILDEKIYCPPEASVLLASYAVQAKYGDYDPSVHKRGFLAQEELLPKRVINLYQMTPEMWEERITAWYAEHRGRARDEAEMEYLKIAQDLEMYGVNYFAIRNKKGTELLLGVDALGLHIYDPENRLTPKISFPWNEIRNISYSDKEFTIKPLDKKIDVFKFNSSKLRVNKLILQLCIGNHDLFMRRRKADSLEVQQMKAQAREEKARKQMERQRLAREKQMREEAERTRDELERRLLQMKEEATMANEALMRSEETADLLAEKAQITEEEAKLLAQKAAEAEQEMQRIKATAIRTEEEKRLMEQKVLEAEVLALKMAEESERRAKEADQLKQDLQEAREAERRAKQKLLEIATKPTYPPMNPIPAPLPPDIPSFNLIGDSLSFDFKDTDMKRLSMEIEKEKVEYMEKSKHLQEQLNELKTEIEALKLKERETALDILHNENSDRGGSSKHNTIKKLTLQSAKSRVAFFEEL
GST-merlin FERM (aa 1–313): residues 1-313 of P35240
GST-merlin aa 1–73: residues 1-73 of P35240
GST-merlin α-helical-tail domains (aa 312–595): residues 312-595 of P35240

T1: GST-RasGAP aa 158–1047 (UniProt P20936)
T1 sequence: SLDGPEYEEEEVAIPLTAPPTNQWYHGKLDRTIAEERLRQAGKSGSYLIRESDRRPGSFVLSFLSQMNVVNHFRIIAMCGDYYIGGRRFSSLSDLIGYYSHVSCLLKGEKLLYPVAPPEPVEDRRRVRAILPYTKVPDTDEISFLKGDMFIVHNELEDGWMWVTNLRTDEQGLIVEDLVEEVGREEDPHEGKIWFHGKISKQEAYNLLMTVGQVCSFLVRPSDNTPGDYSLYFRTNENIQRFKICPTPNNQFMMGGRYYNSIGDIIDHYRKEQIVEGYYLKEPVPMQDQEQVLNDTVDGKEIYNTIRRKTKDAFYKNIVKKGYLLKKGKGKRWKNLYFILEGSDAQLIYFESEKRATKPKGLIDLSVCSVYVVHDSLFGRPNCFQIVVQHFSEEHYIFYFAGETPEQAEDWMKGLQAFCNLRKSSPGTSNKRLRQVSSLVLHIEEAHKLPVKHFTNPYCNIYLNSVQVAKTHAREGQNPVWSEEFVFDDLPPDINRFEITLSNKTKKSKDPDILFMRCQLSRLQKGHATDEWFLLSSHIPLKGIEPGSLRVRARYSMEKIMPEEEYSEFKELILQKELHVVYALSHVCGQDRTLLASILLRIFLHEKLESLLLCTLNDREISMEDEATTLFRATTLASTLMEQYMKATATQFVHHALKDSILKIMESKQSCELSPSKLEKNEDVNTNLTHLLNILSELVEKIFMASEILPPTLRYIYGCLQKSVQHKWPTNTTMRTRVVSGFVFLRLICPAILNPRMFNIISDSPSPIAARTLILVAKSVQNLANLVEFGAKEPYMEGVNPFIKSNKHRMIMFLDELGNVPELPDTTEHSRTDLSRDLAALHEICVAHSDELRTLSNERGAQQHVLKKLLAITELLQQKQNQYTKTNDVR

T2: GST-RasGAP aa 158–1047 C540Y (UniProt P20936)
T2 sequence: T1 sequence with C383Y

T3: GST-RasGAP partial C2 domain (aa 606–648) (UniProt P20936)
T3 sequence: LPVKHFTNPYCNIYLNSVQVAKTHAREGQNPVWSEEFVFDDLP

B1: RasGAP of Sc4 cells (protein, UniProt E9PYG6 1-1038)
chain: MMAAEAGSEEGGPATAGPGGGAATGSSAYSAACRVKLPAALPVAAAPCPGLADADLVAALGGGAASGSGFLGTGPVAGVLGGAALTGSAAAGVAGAAAAGPAGDVAFTKGTLSLPAETLGPGGGFPPLPPPPQLPPLGSGLGTVDEGDSLDGPEYEEEEVAIPLTAPPTNQWYHGKLDRTIAEERLRQAGKSGSYLIRESDRRPGSFVLSFLSQTNVVNHFRIIAMCGDYYIGGRRFSSLSDLIGYYSHVSCLLKGEKLLYPVAPPEPVEDRRRVRAILPYTKVPDTDEISFLKGDMFIVHNELEDGWMWVTNLRTDEQGLIVEDLVEEVGREEDPHEGKIWFHGKISKQEAYNLLMTVGQVCSFLVRPSDNTPGDYSLYFRTNENIQRFKICPTPNNQFMMGGRYYNSIGDIIDHYRKEQIVEGYYLKEPVPMQDQGQVLNDTVDGKEIYNTIRRKTKDAFYKNIVKKGYLLKKGKGKRWKNLYFILEGSDAQLIYFESEKRATKPKGLIDLSVCSVYVVHDSLFGRPNCFQIVVQHFSEEHYIFYFAGETPEQAEDWMKGLQAFCSLRKSSPGTSNKRLRQVSSLVLHIEEAHKLPVKHFTNPYCNIYLNSVQVAKTHAREGQNPVWSEEFVFDDLPPDINRFEITLSNKTKKSKDPDILFMRCQLSRLQKGHATDEWFLLSSHIPLKGIEPGSLRVRARYSMEKIMPEEEYSEFKELILQKELHVVYALSHVCGQDRTLLASILLKIFLHEKLESLLLCTLNDREISMEDEATTLFRATTLASTLMEQYMKATATQFVHHALKDSILKIMESKQSCELSPSKLEKNEDVNTNLAHLLSILSELVEKIFMASEILPPTLRYIYGCLQKSVQHKWPTNNTMRTRVVSGFVFLRLICPAILNPRMFNIISDSPSPIAARTLTLVAKSVQNLANLVEFGAKEPYMEGVNPFIKSNKHRMIMFLDELGNVPELPDTTEHSRTDLSRDLAALHEICVAHSDELRTLSNERGVQQHVLKKLLAITELLQQKQNQYTKTNDIR

Key:
GST-RasGAP aa 158–1047 = biological target: T1, GST-RasGAP aa 158–1047; assay: far-Western, overlay or dot blot; purified merlin incubated with GST-RasGAP fragments immobilized on a nitrocellulose membrane; both purified
[1] = biological target: T2, GST-RasGAP aa 158–1047 C540Y; assay: as above
[2] = biological target: T3, GST-RasGAP partial C2 domain (aa 606–648); assay: as above
[3] = biological target: GST-merlin FERM (aa 1–313) (UniProt P35240); assay: pull-down; GST-merlin fragments pull down RasGAP from Sc4 cell lysate; western blot; only the target purified
GST-merlin aa 1–18 = GST-merlin aa 1–18 (UniProt P35240); assay: as above
GST-merlin aa 1–73 = GST-merlin aa 1–73 (UniProt P35240); assay: as above
[4] = biological target: GST-merlin α-helical-tail domains (aa 312–595) (UniProt P35240); assay: as above

Molecule | binding (GST-RasGAP aa 158–1047) | binding [1] | binding [2] | binding [3] | binding (GST-merlin aa 1–18) | binding (GST-merlin aa 1–73) | binding [4]
purified merlin (far-western) (from UniProt P35240 1-595) | binds | binds | no binding |  |  |  | 
B1 |  |  |  | binds | no binding | binds | binds
